The values that follow come from the supplement of paper PMC7125110.

B1: glmS ribozyme (parent)
chain: AUAAAAGCGCCAGAACUACAGAAAUGUAGUUGACGAGGAGGAGGUUUAUCGAAUUUUCGGCGGAUGCCUCCAAA

Conditions in all cases: with glucosamine-6-phosphate
Variants of B1 are the subject of data set [1]. Put plainly: self-cleavage kobs at 160 uM GlcN6P; higher = faster cleavage; RNA array. The procedure, abridged: (§1)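 E. coli RNA polymerase transcribed barcoded ribozyme variants in situ on sequenced MiSeq chips, which were tracked via a hybridised Cy3 probe at 37 °C. Tiles were imaged over ~14 h after glucosamine-6-phosphate (40 μM to 10 mM) in HEPES/KCl/Mg(OAc)2 buffer was flowed in. Normalised per-tile medians were fit to one- or two-exponential decays for kobs, and kcat and KM came from weighted Michaelis–Menten fits.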

The variants in data set [2] derive from B1. Briefly: self-cleavage kobs at 2500 uM GlcN6P; higher = faster cleavage; RNA array. The procedure, abridged:
as §1

Variants of B1 are the subject of data set [3]. Briefly: self-cleavage kobs at 10000 uM GlcN6P; higher = faster cleavage; RNA array. The essentials:
as §1

± gives the standard error. Variants at the floor of the assay are shown more often than the library holds them.

Take A33G C67G C70A: in data set [1], the “self-cleavage kobs at 160 uM GlcN6P” value came out at 4.49e-05 ± 2.2e-05 s⁻¹.

Regarding U30A A42U, the “self-cleavage kobs at 160 uM GlcN6P” value in data set [1] was below 1e-05 s⁻¹.

As for A33C U49G, the “self-cleavage kobs at 160 uM GlcN6P” value in data set [1] was below 1e-05 s⁻¹.

In the case of A6U C10G A42C, the “self-cleavage kobs at 160 uM GlcN6P” value in data set [1] is below 1e-05 s⁻¹. Moreover, the “self-cleavage kobs at 2500 uM GlcN6P” value in data set [2] is below 1e-05 s⁻¹.

As for A14C A39C C71U, in data set [1], the “self-cleavage kobs at 160 uM GlcN6P” value was below 1e-05 s⁻¹.

Take C11U G51U A53G: in data set [1], the “self-cleavage kobs at 160 uM GlcN6P” value was below 1e-05 s⁻¹.

For the variant C10U G32A G40C C68U, the “self-cleavage kobs at 160 uM GlcN6P” value in data set [1] was below 1e-05 s⁻¹.

G32C A33U G63U: the “self-cleavage kobs at 160 uM GlcN6P” value in data set [1] was below 1e-05 s⁻¹.

Consider U31C U57C, for which the “self-cleavage kobs at 160 uM GlcN6P” value in data set [1] is below 1e-05 s⁻¹.

With U30C G35U G40U A42G U47C, in data set [1], the “self-cleavage kobs at 160 uM GlcN6P” value was below 1e-05 s⁻¹.

With G13U G32U A33C U57A, the “self-cleavage kobs at 160 uM GlcN6P” value in data set [1] was below 1e-05 s⁻¹.

Consider G7A A33C A42C A48C, for which the “self-cleavage kobs at 160 uM GlcN6P” value in data set [1] was below 1e-05 s⁻¹. Moreover, in data set [2], the “self-cleavage kobs at 2500 uM GlcN6P” value was below 1e-05 s⁻¹.

Turning to C8U G35C C50U G51U C61G, in data set [1], the “self-cleavage kobs at 160 uM GlcN6P” value is below 1e-05 s⁻¹. In addition, the “self-cleavage kobs at 2500 uM GlcN6P” value in data set [2] was below 1e-05 s⁻¹.

Turning to A14C U45G, the “self-cleavage kobs at 160 uM GlcN6P” value in data set [1] stood at 6.63e-05 ± 1.5e-05 s⁻¹.

C10U U54C U56G: in data set [1], the “self-cleavage kobs at 160 uM GlcN6P” value is below 1e-05 s⁻¹.

In the case of G32U A48C, in data set [1], the “self-cleavage kobs at 160 uM GlcN6P” value was below 1e-05 s⁻¹. Besides, in data set [3], the “self-cleavage kobs at 10000 uM GlcN6P” value was below 1e-05 s⁻¹.

For the variant G32C G40U A42U C61G, the “self-cleavage kobs at 160 uM GlcN6P” value in data set [1] is below 1e-05 s⁻¹.

For the variant C16U U55C, the “self-cleavage kobs at 160 uM GlcN6P” value in data set [1] worked out at 0.00153 ± 0.00037 s⁻¹. The “self-cleavage kobs at 2500 uM GlcN6P” value in data set [2] worked out at 0.00585 ± 0.0013 s⁻¹.

Consider A12U G35U G41C C71G, for which the “self-cleavage kobs at 160 uM GlcN6P” value in data set [1] is below 1e-05 s⁻¹. For the same variant, the “self-cleavage kobs at 2500 uM GlcN6P” value in data set [2] is below 1e-05 s⁻¹.

For the variant G13A A15G G51A U54G C61A A64C, the “self-cleavage kobs at 160 uM GlcN6P” value in data set [1] is below 1e-05 s⁻¹.

As for G7U A52G C70G, in data set [1], the “self-cleavage kobs at 160 uM GlcN6P” value was below 1e-05 s⁻¹.

As for A15G C58G G63C C68G, the “self-cleavage kobs at 160 uM GlcN6P” value in data set [1] came out at 0.000162 ± 4.4e-05 s⁻¹.

Turning to G9C G37A G51A, the “self-cleavage kobs at 160 uM GlcN6P” value in data set [1] was below 1e-05 s⁻¹. In addition, the “self-cleavage kobs at 2500 uM GlcN6P” value in data set [2] was below 1e-05 s⁻¹.

Consider A14C A42G G62A, for which, in data set [1], the “self-cleavage kobs at 160 uM GlcN6P” value is below 1e-05 s⁻¹. For the same variant, in data set [3], the “self-cleavage kobs at 10000 uM GlcN6P” value is below 1e-05 s⁻¹.

Take A14G C16A U17C A18U C19A A20C U56C C67G: the “self-cleavage kobs at 160 uM GlcN6P” value in data set [1] is below 1e-05 s⁻¹.

A14G U31G G32A G44A G51C C61U: in data set [1], the “self-cleavage kobs at 160 uM GlcN6P” value is below 1e-05 s⁻¹. Further, the “self-cleavage kobs at 2500 uM GlcN6P” value in data set [2] was below 1e-05 s⁻¹.

For C8A G13U A33G A36C, the “self-cleavage kobs at 160 uM GlcN6P” value in data set [1] was below 1e-05 s⁻¹.

Consider C8U G29C G51A, for which the “self-cleavage kobs at 160 uM GlcN6P” value in data set [1] is below 1e-05 s⁻¹.

Turning to A14C C50U, the “self-cleavage kobs at 160 uM GlcN6P” value in data set [1] was below 1e-05 s⁻¹.

Consider G32C U47G, for which the “self-cleavage kobs at 160 uM GlcN6P” value in data set [1] is below 1e-05 s⁻¹.

Consider A6U G32U G44U, for which the “self-cleavage kobs at 160 uM GlcN6P” value in data set [1] was below 1e-05 s⁻¹. For the same variant, the “self-cleavage kobs at 2500 uM GlcN6P” value in data set [2] was below 1e-05 s⁻¹. Besides, the “self-cleavage kobs at 10000 uM GlcN6P” value in data set [3] was below 1e-05 s⁻¹.

G9U A12C G40A G41U G43U G63U: in data set [1], the “self-cleavage kobs at 160 uM GlcN6P” value was below 1e-05 s⁻¹.

Consider G7U A33G C71U, for which the “self-cleavage kobs at 160 uM GlcN6P” value in data set [1] is below 1e-05 s⁻¹. Moreover, in data set [2], the “self-cleavage kobs at 2500 uM GlcN6P” value was below 1e-05 s⁻¹.

A14C A15U G32C C58U: the “self-cleavage kobs at 160 uM GlcN6P” value in data set [1] was below 1e-05 s⁻¹.

As to C11U C34G G51U, in data set [1], the “self-cleavage kobs at 160 uM GlcN6P” value is below 1e-05 s⁻¹. For the same variant, the “self-cleavage kobs at 2500 uM GlcN6P” value in data set [2] is below 1e-05 s⁻¹.

Regarding A14C C16A U31C G35C U55G, the “self-cleavage kobs at 160 uM GlcN6P” value in data set [1] was below 1e-05 s⁻¹. Also, the “self-cleavage kobs at 2500 uM GlcN6P” value in data set [2] is below 1e-05 s⁻¹. Also, in data set [3], the “self-cleavage kobs at 10000 uM GlcN6P” value was below 1e-05 s⁻¹.
